Results published in patent US9717725B2, “Use of opioid antagonists” (THE UNIVERSITY OF CHICAGO, priority 2005, dated 2017).

Test system: Human Microvascular Endothelial Cells (HMVEC)
Settings: for endothelial cell migration (number of cells migrated per 10 high power fields): substance alone, 0.001 to 10.0 μM, 4 hours at 37° C.

SMILES | endothelial cell migration (number of cells migrated per 10 high power fields) | inhibition of DAMGO-induced endothelial cell migration (DAMGO 1 μM)
C[C@@H](NC(=O)[C@@H](N)Cc1ccc(O)cc1)C(=O)NCC(=O)N(C)[C@@H](Cc1ccccc1)C(=O)NCCO [DAMGO, [D-Ala^2, N-McPhe^4, Gly^5-ol]-enkephalin] | dose-dependent increase in migration of endothelial cells | –
CN1CC[C@]23c4c5ccc(O[C@@H]6O[C@H](C(=O)O)[C@@H](O)[C@H](O)[C@H]6O)c4O[C@H]2[C@@H](O)C=C[C@H]3[C@H]1C5 [M3G, morphine 3-glucuronide] | exerts no angiogenic activity | –
CN1CC[C@]23c4c5ccc(O)c4O[C@H]2[C@@H](O[C@@H]2O[C@H](C(=O)O)[C@@H](O)[C@H](O)[C@H]2O)C=C[C@H]3[C@H]1C5 [M6G, morphine 6-glucuronide] | exhibited a concentration dependent effect on angiogenesis | –
C[N@+]1(CC2CC2)CC[C@]23c4c5ccc(O)c4O[C@H]2C(=O)CC[C@@]3(O)[C@H]1C5 [methylnaltrexone, N-methylnaltrexone] | – | decreased migration in a concentration-dependent manner
